The whole screen tested about 310,000 compounds, of which about 14,000 (4.5%) showed an effect of 50% or more. Effects have a minus sign here. The list shows a part of the results.
These molecules were tested against human ether-à-go-go-related gene (hERG) potassium channel (human, UniProt Q12809) (assay: primary screen, population patch clamp on CHO cells stably expressing hERG).
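Note: peak tail current of the secondary pulse compared with the same well before compound.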

Chain of human ether-à-go-go-related gene (hERG) potassium channel (Q12809 whole entry, looked up): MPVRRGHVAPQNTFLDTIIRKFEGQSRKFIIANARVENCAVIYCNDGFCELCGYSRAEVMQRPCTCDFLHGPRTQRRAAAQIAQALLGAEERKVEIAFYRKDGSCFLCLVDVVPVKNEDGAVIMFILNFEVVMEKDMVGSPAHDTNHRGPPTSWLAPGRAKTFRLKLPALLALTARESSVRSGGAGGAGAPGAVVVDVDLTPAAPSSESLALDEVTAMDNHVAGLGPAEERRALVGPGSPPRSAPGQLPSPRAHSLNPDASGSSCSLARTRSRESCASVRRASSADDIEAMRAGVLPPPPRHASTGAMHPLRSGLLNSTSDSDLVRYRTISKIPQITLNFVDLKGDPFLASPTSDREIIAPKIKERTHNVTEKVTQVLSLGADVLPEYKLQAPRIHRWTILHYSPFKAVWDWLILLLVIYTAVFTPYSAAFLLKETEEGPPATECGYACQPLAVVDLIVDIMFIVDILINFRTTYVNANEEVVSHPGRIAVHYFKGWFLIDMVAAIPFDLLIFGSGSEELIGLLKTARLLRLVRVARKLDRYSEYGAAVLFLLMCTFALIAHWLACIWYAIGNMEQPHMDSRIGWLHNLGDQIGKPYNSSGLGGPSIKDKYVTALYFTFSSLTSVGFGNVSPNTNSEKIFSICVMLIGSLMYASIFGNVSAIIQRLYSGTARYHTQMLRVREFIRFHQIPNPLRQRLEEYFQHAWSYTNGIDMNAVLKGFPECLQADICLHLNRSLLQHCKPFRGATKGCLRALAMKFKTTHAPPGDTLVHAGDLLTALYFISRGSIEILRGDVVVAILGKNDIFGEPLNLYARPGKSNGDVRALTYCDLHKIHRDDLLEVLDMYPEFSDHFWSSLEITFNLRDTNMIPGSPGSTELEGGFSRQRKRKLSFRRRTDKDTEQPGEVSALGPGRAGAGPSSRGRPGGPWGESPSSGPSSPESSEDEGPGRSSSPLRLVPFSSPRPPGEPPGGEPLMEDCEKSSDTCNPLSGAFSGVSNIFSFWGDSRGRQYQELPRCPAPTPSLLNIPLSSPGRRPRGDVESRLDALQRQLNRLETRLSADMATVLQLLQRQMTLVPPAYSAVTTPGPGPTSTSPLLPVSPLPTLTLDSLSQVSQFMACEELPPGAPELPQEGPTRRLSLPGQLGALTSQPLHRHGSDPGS

Compared with `COc1ccc(C(=O)Nc2ccc(S(=O)(=O)N3CCOCC3)cc2)cc1`, `CC(=O)c1cccc(NC(=O)C2CCCN(S(=O)(=O)c3ccc(F)cc3)C2)c1` (stereo not shown) is lower in “hERG current change (%, negative = inhibition) at 10uM” value: -3.15% for the first, -3.5% for the second.

Compared with `O=C(c1[nH]ncc1[N+](=O)[O-])N1CCOCC1`, `CCN(CC)C(=O)Cn1cc(C(=O)C(=O)NCCCN2CCOCC2)c2ccccc21` is lower in “hERG current change (%, negative = inhibition) at 10uM” value: 16.4% for the first, 2.7% for the second.

Going from `COc1ccc(N(CC(O)Cn2cnc3ccccc32)S(=O)(=O)c2ccc(C)cc2)cc1` (stereo not shown) to `CC(/C=C1\SC(=S)N(NS(=O)(=O)c2ccc(C)cc2)C1=O)=C\c1ccccc1`, the “hERG current change (%, negative = inhibition) at 10uM” value rises from -58% to -5.35%.

Compared with `Cc1cc(C)cc(NC(=O)[C@H](NC(=O)[C@@H]2Cc3ccccc3CN2)c2ccccc2)c1`, `Cc1cc(SC(C)C(=O)Nc2c(C)n(C)n(-c3ccccc3)c2=O)nc2ccccc12` (stereo not shown) is lower in “hERG current change (%, negative = inhibition) at 10uM” value: -0.0454% for the first, -6.76% for the second.

Compared with `Cc1[nH]c(=S)[nH]c(=O)c1CCC1OCCO1`, `COCCOC(=O)C1=C(C)NC2=C(C(=O)CCC2)C1c1cc2c(cc1Br)OCO2` (stereo not shown) is lower in “hERG current change (%, negative = inhibition) at 10uM” value: -3.78% for the first, -16.6% for the second.

Compared with `CCOc1ccc(C(=O)Nc2ccc(NC(=O)c3ccco3)c(Cl)c2)cc1Br`, `Cc1ccc(C(=O)OCC(=O)Nc2sc3c(c2C#N)CCCCC3)cc1NC(=O)c1ccco1` is lower in “hERG current change (%, negative = inhibition) at 10uM” value: 9.83% for the first, -8.72% for the second.

First: CC(=O)Nc1ccc(Br)cc1C(=O)C(=O)O
Second: CC(=O)c1cccc(NC(=O)c2onc(C)c2Cl)c1
The “hERG current change (%, negative = inhibition) at 10uM” value of the first is lower: -2.93% for the first, 5.69% for the second.

First: N#Cc1cc(-c2ccccc2)nc(NN)n1
Second: N#Cc1ccccc1CSc1nnc(-c2ccncc2)o1
The “hERG current change (%, negative = inhibition) at 10uM” value of the first is higher: -5.6% for the first, -9.63% for the second.

Compared with `CCc1ccc(NC(=S)Nc2ccc3[nH]c(=O)[nH]c3c2)cc1`, `Cc1noc(C)c1COc1ccccc1C(=O)N(C)CC(=O)Nc1ccc(F)cc1` is lower in “hERG current change (%, negative = inhibition) at 10uM” value: 11.3% for the first, -14.8% for the second.

Compared with `COC(=O)/C=c1\sc2n(c1=O)C(C)=CC(C)(C)N=2`, `COc1ccccc1-n1c(C)nc2cc(C(=O)O)ccc21` is higher in “hERG current change (%, negative = inhibition) at 10uM” value: 6.87% for the first, 12.7% for the second.

First: Cc1ccc(C(=O)Nc2nnc(C3CCCCC3)s2)o1
Second: COc1ccc(NC(=O)CSc2nnc(C3CCCCC3)n2N)cc1
The “hERG current change (%, negative = inhibition) at 10uM” value of the first is higher: 8.68% for the first, 1.26% for the second.

Compared with `S=c1[nH]nc(/C=C/c2ccccc2)o1`, `CN(C/C=C/c1ccccc1)C1CCCCC1` is lower in “hERG current change (%, negative = inhibition) at 10uM” value: 24.4% for the first, -21.7% for the second.

Compared with `CCOC(=O)C1=C(COC(=O)c2ccc(OC(C)C)cc2)NC(=O)NC1C` (stereo not shown), `CC(C)N(C(=O)COC(=O)c1ccc(Cl)s1)c1ccccc1` is lower in “hERG current change (%, negative = inhibition) at 10uM” value: 9.34% for the first, 0.733% for the second.

Compared with `O=C(Cn1cnc2c(cnn2-c2ccc(F)cc2)c1=O)N1CCN(c2ccccc2F)CC1`, `COc1ccc(CC(=O)N2CCN(c3ccccn3)CC2)cc1` is higher in “hERG current change (%, negative = inhibition) at 10uM” value: -22.3% for the first, 7.79% for the second.

First: CN(CC(=O)Nc1cccc(F)c1)C(=O)/C=C/c1cn(Cc2ccccc2)nc1-c1cccnc1
Second: COc1ccc(S(=O)(=O)N2CCCCCC2)cc1C(=O)N(C)CC(=O)Nc1ccc(F)cc1
The “hERG current change (%, negative = inhibition) at 10uM” value of the first is lower: -48.8% for the first, -0.16% for the second.

First: Cn1nccc1C(=O)N1CCCC(C(=O)c2cccc3ccccc23)C1 (stereo not shown)
Second: Cc1ccc([N+](=O)[O-])c(OCCN2CCC(Cc3ccccc3)CC2)c1.O=C(O)C(=O)O
The “hERG current change (%, negative = inhibition) at 10uM” value of the first is higher: -9.7% for the first, -73% for the second.

First: CC(C)n1c(O)c(N=NC(=O)c2ccccc2NS(=O)(=O)c2cccs2)c2ccccc21
Second: Cc1ccc(S(=O)(=O)N(C)C)cc1NC(=O)c1cc(=O)c2ccccc2o1
The “hERG current change (%, negative = inhibition) at 10uM” value of the first is higher: 4.34% for the first, 2.36% for the second.

Compared with `Cc1cc(C)n(-c2nc3c(c(=O)[nH]c(=O)n3C)n2C)n1`, `COC(=O)Cn1c(=O)c2c(nc3n2CC(C)CN3Cc2ccccc2)n(C)c1=O` (stereo not shown) is lower in “hERG current change (%, negative = inhibition) at 10uM” value: 10.1% for the first, -38.1% for the second.

First: CN(CCCNC(=O)C1CCN(S(=O)(=O)N2CCC3(CC2)OCCO3)CC1)Cc1ccccc1
Second: CCOCCCNC(=O)C1CCC(CNS(=O)(=O)c2cccc3nsnc23)CC1 (stereo not shown)
The “hERG current change (%, negative = inhibition) at 10uM” value of the first is higher: 2.31% for the first, -19.1% for the second.

First: COc1ccc2cc(-c3[nH]ncc3CN3CCCN(c4ccccc4)CC3)ccc2c1
Second: CN(C)S(=O)(=O)c1ccc(N2CCCC2)c(C(=O)Nc2nc3ccc(F)cc3s2)c1
The “hERG current change (%, negative = inhibition) at 10uM” value of the first is higher: -18.5% for the first, -37.1% for the second.

Going from `Cc1c(NC(=O)C(C)OC(=O)c2ncc(Cl)c(Cl)c2Cl)c(=O)n(-c2ccccc2)n1C` (stereo not shown) to `FC(F)(F)c1ccc2nnc(-c3c(Cl)cccc3Cl)n2c1`, the “hERG current change (%, negative = inhibition) at 10uM” value falls from 2.05% to -4.48%.

For `CC(C)(C)c1ccccc1OCCCCN1CCCC1`, the “hERG current change (%, negative = inhibition) at 10uM” value was -13.8%.
